Experimental data reported in US20220073613A1, “ACTIVATABLE MASKED ANTI-CTLA4 BINDING PROTEINS” (Xilio Development, Inc., priority 2018, published 2022).

How the values were obtained:
[1] = In vivo cleavage of masked antibodies in plasma of healthy mice, Western blot; parameters: species or system C57BL/6J mice; conditions: 200 μg i.p., days 2, 4, 7
Method: Healthy, non-tumor bearing, seven-eight week old female C57BL/6J mice were injected intraperitoneally on day 0 with 200 μg of masked forms of Antibody 2. On days two and four, blood was collected via RO sinus and processed with LiHep for plasma isolation. On day seven, blood was collected via cardiac puncture and processed with LiHep for plasma isolation. Plasma was aliquoted and stored at −80° C. until Western blot analysis. Standard samples where the masked antibody was treated in the presence or absence of protease in vitro were included as positive controls. For Western blot analysis, plasma samples were diluted in PBS, then in Laemmli Sample Buffer and βME. Samples were heated at 95° C. then loaded on a Criterion TGX Stain-free Precast gel. SDS-PAGE was performed at 200 V for forty-two minutes. Protein was transferred to nitrocellulose membrane and blocked in 1×TBS with 1% Casein Blocker for one hour at room temperature shaking. The membrane was probed with HRP-conjugated Rb mAb to human Kappa Light Chain [clone EPR5367-8], diluted 1:10,000 in Casein Blocker, overnight at 4° C. shaking. The membrane was washed three times with PBS-Tween and developed with SuperSignal ELISA Pico Chemiluminescent Substrate. Raw data was analyzed with ImageLab software. Activation percentage was calculated as follows: the intensity of the activated band/(intensity of the activated band+intensity of the masked non-activated band)*100%.
(§1) In vivo experiment was performed in two cohorts across two weeks, with Antibody 2-14 included in both cohorts. Antibodies that were tested include Antibody 2-14, Antibody 2-15, Antibody 2-16, Antibody 2-17, Antibody 2-18, Antibody 2-19, Antibody 2-20, and Antibody 2-21. Antibody 2-15 includes a cleavable peptide sequence that is non-cleavable, for use as a negative control.

[2] = In vivo cleavage of masked antibodies in plasma of MC38 tumor-bearing mice, Western blot; parameters: species or system C57BL/6J mice; conditions: MC38-bearing mice, 200 μg i.p., days 2, 4, 7
Method: MC38 cells (1×10^6) were injected subcutaneously into seven-eight week old female C57BL/6J mice subcutaneously. On day 0, the mice were randomized based on tumor volume measurements and injected intraperitoneally with 200 μg of Antibody 2 constructs. Blood was collected via RO sinus on days two and four and processed with LiHep for plasma isolation. On day seven, blood was collected via cardiac puncture and process with LiHep for plasma isolation. Plasma was aliquoted and stored at −80 C until Western blot analysis. Standard samples where the masked antibody was treated in the presence or absence of protease in vitro were included as positive controls. For Western blot analysis, plasma samples were diluted in PBS, then in Laemmli Sample Buffer and βME. Samples were heated at 95° C. then loaded on a Criterion TGX Stain-free Precast gel. SDS-PAGE was performed at 200 V for forty-two minutes. Protein was transferred to nitrocellulose membrane and blocked in 1×TBS with 1% Casein Blocker for one hour at room temperature shaking. The membrane was probed with HRP-conjugated Rb mAb to human Kappa Light Chain [clone EPR5367-8], diluted 1:10,000 in Casein Blocker, overnight at 4° C. shaking. The membrane was washed three times with PBS-Tween and developed with SuperSignal ELISA Pico Chemiluminescent Substrate. Raw data was analyzed with ImageLab software.
as §1

| Molecule | activation in vivo (cleavage in plasma) [1] | activation in vivo (cleavage in plasma) [2] |
| --- | --- | --- |
| Antibody 2-20: masked Antibody 2-6: mask CPFPALELC, cleavable peptide RAAAVKSP; SEQ ID NO: 429 and 421 (protein) light: ACPFPALELCGGSSPPRAAAVKSPSGGEIVLTQSPDFQSVTPKEKVTITCSANSALSYMYWYQQKPDQSPKLWVHGTSNLASGVPSRFSGSGSGTDFTLTINSLEAEDAATYYCHHWSNTQWTFGGGTKVEIKRTVAAPSVFIFPPSDEQLKSGTASVVCLLNNFYPREAKVQWKVDNALQSGNSQESVTEQDSKDSTYSLSSTLTLSKADYEKHKVYACEVTHQGLSSPVTKSFNRGEC heavy: QVQLVQSGAEVKKPGSSVKVSCKASGYTFTNYFMNWVRQAPGQGLEWMGRVDPEQGRADYAEKFKKRVTITADKSTSTAYMELSSLRSEDTAVYYCARRAMDNYGFAYWGQGTLVTVSS[human IgG1 constant region with changes left out here] | activated in vivo | activated in vivo |
| Antibody 2-17: masked Antibody 2-6: mask CPFPALELC, cleavable peptide GGIGQLTA; SEQ ID NO: 428 and 421 (protein) light: ACPFPALELCSSPSPSGGGGIGQLTASGGEIVLTQSPDFQSVTPKEKVTITCSANSALSYMYWYQQKPDQSPKLWVHGTSNLASGVPSRFSGSGSGTDFTLTINSLEAEDAATYYCHHWSNTQWTFGGGTKVEIKRTVAAPSVFIFPPSDEQLKSGTASVVCLLNNFYPREAKVQWKVDNALQSGNSQESVTEQDSKDSTYSLSSTLTLSKADYEKHKVYACEVTHQGLSSPVTKSFNRGEC heavy: QVQLVQSGAEVKKPGSSVKVSCKASGYTFTNYFMNWVRQAPGQGLEWMGRVDPEQGRADYAEKFKKRVTITADKSTSTAYMELSSLRSEDTAVYYCARRAMDNYGFAYWGQGTLVTVSS[human IgG1 constant region with changes left out here] | not detected | not detected |
| Antibody 2-18: masked Antibody 2-6: mask CPFPALELC, cleavable peptide MPYDLYHP; SEQ ID NO: 425 and 421 (protein) light: ACPFPALELCGGPGSSPMPYDLYHPSGGEIVLTQSPDFQSVTPKEKVTITCSANSALSYMYWYQQKPDQSPKLWVHGTSNLASGVPSRFSGSGSGTDFTLTINSLEAEDAATYYCHHWSNTQWTFGGGTKVEIKRTVAAPSVFIFPPSDEQLKSGTASVVCLLNNFYPREAKVQWKVDNALQSGNSQESVTEQDSKDSTYSLSSTLTLSKADYEKHKVYACEVTHQGLSSPVTKSFNRGEC heavy: QVQLVQSGAEVKKPGSSVKVSCKASGYTFTNYFMNWVRQAPGQGLEWMGRVDPEQGRADYAEKFKKRVTITADKSTSTAYMELSSLRSEDTAVYYCARRAMDNYGFAYWGQGTLVTVSS[human IgG1 constant region with changes left out here] | not detected | not detected |
| Antibody 2-19: masked Antibody 2-6: mask CPFPALELC, cleavable peptide HEQLTV; SEQ ID NO: 426 and 421 (protein) light: ACPFPALELCGGSSPPHEQLTVSGGEIVLTQSPDFQSVTPKEKVTITCSANSALSYMYWYQQKPDQSPKLWVHGTSNLASGVPSRFSGSGSGTDFTLTINSLEAEDAATYYCHHWSNTQWTFGGGTKVEIKRTVAAPSVFIFPPSDEQLKSGTASVVCLLNNFYPREAKVQWKVDNALQSGNSQESVTEQDSKDSTYSLSSTLTLSKADYEKHKVYACEVTHQGLSSPVTKSFNRGEC heavy: QVQLVQSGAEVKKPGSSVKVSCKASGYTFTNYFMNWVRQAPGQGLEWMGRVDPEQGRADYAEKFKKRVTITADKSTSTAYMELSSLRSEDTAVYYCARRAMDNYGFAYWGQGTLVTVSS[human IgG1 constant region with changes left out here] | not detected | not detected |
| Antibody 2-21: masked Antibody 2-6: mask CPFPALELC, cleavable peptide TSVLMAAP; SEQ ID NO: 430 and 421 (protein) light: ACPFPALELCGGSSPPTSVLMAAPSGGEIVLTQSPDFQSVTPKEKVTITCSANSALSYMYWYQQKPDQSPKLWVHGTSNLASGVPSRFSGSGSGTDFTLTINSLEAEDAATYYCHHWSNTQWTFGGGTKVEIKRTVAAPSVFIFPPSDEQLKSGTASVVCLLNNFYPREAKVQWKVDNALQSGNSQESVTEQDSKDSTYSLSSTLTLSKADYEKHKVYACEVTHQGLSSPVTKSFNRGEC heavy: QVQLVQSGAEVKKPGSSVKVSCKASGYTFTNYFMNWVRQAPGQGLEWMGRVDPEQGRADYAEKFKKRVTITADKSTSTAYMELSSLRSEDTAVYYCARRAMDNYGFAYWGQGTLVTVSS[human IgG1 constant region with changes left out here] | not detected | not detected |
